The record followed here is PubChem BioAssay (NCI).

Among the test systems are SF-268 CNS; HS 578T breast; LOX IMVI melanoma; T-47D breast; TK-10 renal; COLO 205 colon; IGROV1 ovarian; HCC-2998 colon; SF-295 CNS; EKVX NSCLC; OVCAR-3 ovarian; BT-549 breast; HL-60(TB) leukemia; ACHN renal; SR leukemia.
What all share (experiment): DTP human tumour cell line panel, 48 h

SMILES strings stand for the structures.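 Values below derive from 48-hour exposures of cells grown in 96-well plates, with endpoints linearly interpolated between the two concentrations bracketing the appropriate inhibition level. GI50: concentration for 50% inhibition of growth.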 Certain results were filed several times, with different values. The list is limited to them. The source may hold further records. For part of these data: A record mostly stands for its own series of concentrations, not given here; some values may only mark the edge of a range.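 At the TGI there is no net growth.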 For part of these data: The values listed for one entry are repeated measurements across runs, samples, wells, individuals or studies. A tag in brackets gives the origin of a value. A, B and so on number the origins entry by entry.

On to `COc1ccc2nc3cccc([N+](=O)[O-])c3c(NCCCO)c2c1`, for which the TGI (in general, the concentration giving total growth inhibition) in the assay with SF-268 CNS was 5.34 nM and 178 nM; with HS 578T breast it was 21.9 nM and 233 nM; in the assay on LOX IMVI melanoma, 23.2 nM and 300 nM; in the assay on T-47D breast it was 244 nM and 30.3 µM; with TK-10 renal, 7.75 nM and 127 nM; in the assay on COLO 205 colon, 2.01 nM and 29.5 nM. The TGI with HCC-2998 colon is 5.94 nM and 103 nM; in the assay with SF-295 CNS it was 46.6 nM and 1.07 µM; with EKVX NSCLC, 6.87 nM and 541 nM; in the assay with OVCAR-3 ovarian, 6.19 nM and 19.1 µM; with HL-60(TB) leukemia, 20 nM and 30.1 µM; in the assay with ACHN renal, 1.19 nM and 55.2 nM. The GI50 (usually the concentration that inhibits growth by half) in the assay with IGROV1 ovarian was 3.68 nM and 41.2 nM; in the assay on EKVX NSCLC, 1.67 nM and 89.8 nM; in the assay on OVCAR-3 ovarian, 1.35 nM and 45.6 nM; with BT-549 breast, 2.42 nM and 25.8 nM.

In the case of `NC(=O)Nc1cc(-c2cccc(F)c2)sc1C(=O)N[C@H]1CCCNC1`, the TGI in the assay on HS 578T breast was 661 nM [sample A, mean of 2 tests] and 6.66 µM [sample B, mean of 4 tests]; with SR leukemia, > 8.36 µM [sample A, mean of 2 tests] and 528 nM [sample B, mean of 3 tests].
